{"source": "patent US11180744B2", "about": "“Acinetobacter lysins” (priority 2014, dated 2021)", "molecules": {"B1": {"name": "F307: phage lysin polypeptide, SEQ ID NO: 1, 16 kDa (protein, listed as Acinetobacter baumannii)", "chain": "VKTSNPGVDLIKGFEGLRLKAYDDGVGVWTIGFGTIKYPNGVRVKKGDTCTESQAEEYLRNDLVVFESAINRLVKVPLNQNQFDALASFTYNLGEGNLSISTLLKKLNAKDYKGAAAEFPKWNKAGGRVLAGLVKRRKAEMELFLK"}}, "tested_on": "A. baumannii strain 1791", "assay": "Transmission electron microscopy after F307 treatment", "details": "EDTA 250 μM + F307, 25° C."}
{"molecule": "B1", "values": [{"measurement": "effect on cells in transmission electron micrographs", "result": "caused lysis through extrusion of the cytoplasmic membrane to the outside of the cell"}]}
